# Laboratory results taken from patent US5710249A, “Amino acids and processes for making peptides using same” (The Salk Institute for Biological Studies, priority 1995, dated 1998).
# Not every detail of the peptide structures is certain; ends, links or a residue may be inferred. Some compounds share one wording; it may come from a single statement. Numbered stars: 1 amine (or outer) side, 2 acyl side, 3 side chain; on linkers, the order of the positions; unused ones are H or OH. Square brackets hold non-standard residues; d marks the D form. Peptide text beside a SMILES is read from it. * marks the point of attachment. Phe(4-NH(5-NH2triazol-3-yl)) = Nc1nc(Nc2ccc(C[C@H](N)C(=O)O)cc2)n[nH]1; X19 = Nc1n[nH]c(Nc2ccc(C[C@@H](N[*:1])C(=O)[*:2])cc2)n1; dLys(Nε-C(NCN)NHBu) = CCCCNC(=NC#N)NCCCC[C@@H](N)C(=O)O; hArg(ω-Bu,ω'-CN) = CCCC/N=C(\NC#N)NCCCC[C@H](N)C(=O)O; X28 = N#CN=C(NCCC[C@@H](N[*:1])C(=O)[*:2])NCc1ccccn1; X23 = N#CN=C1NCCOCCN1CCCC[C@@H](N[*:1])C(=O)[*:2]; X8 = CCCCNC(=NC(N)=O)NCCCC[C@H](N[*:1])C(=O)[*:2]; Triazol3yl(1,2,4-5-NH2) = Nc1nc(*)n[nH]1; dPhe(4-Cl) = N[C@H](Cc1ccc(Cl)cc1)C(=O)O; d2Nal = N[C@H](Cc1ccc2ccccc2c1)C(=O)O; Lys(iPr) = CC(C)NCCCC[C@H](N)C(=O)O; d3Pal = N[C@H](Cc1cccnc1)C(=O)O; NMeL = CN[C@@H](CC(C)C)C(=O)O; dOrn = NCCC[C@@H](N)C(=O)O
# Columns and labels:
# [1] = system: adult castrate male Sprague-Dawley rats; assay: LH levels in the bloodstream of castrate male rats after single IV bolus; assay type: in vivo, rat; details: 50 microgram IV single bolus
# [2] = system: mature female Sprague-Dawley rats; assay: in vivo testing of effectiveness to prevent ovulation in female rats; set-up: species or system rat; details: for Rats Ovulating: injected about noon on day of proestrus, rats ovulating/rats treated; for biological potency in vivo relative to parent peptide: biological testing in vivo, comparison in words; for effectiveness to prevent ovulation of female mammals: at low dosages, stated as 'considered'
compound,measurement,setting,value
"CC(=O)N[C@H](Cc1ccc2ccccc2c1)C(=O)N[C@H](Cc1ccc(Cl)cc1)C(=O)N[C@H](Cc1cccnc1)C(=O)N[C@@H](CO)C(=O)N[C@@H](Cc1ccc(Nc2nc(N)n[nH]2)cc1)C(=O)N[C@H](Cc1ccc(Nc2nc(N)n[nH]2)cc1)C(=O)N[C@@H](CC(C)C)C(=O)N[C@@H](CCCCNC(C)C)C(=O)N1CCC[C@H]1C(=O)N[C@H](C)C(N)=O [Peptide 103A, Ac-β-D-2NAL-(4Cl) D-Phe-D-3PAL-Ser-Aph(3-amino 1,2,4 triazole)-D-Aph(3-amino 1,2,4 triazole)-Leu-Lys(isopropyl)-Pro-D-Ala-NH2] (Ac-[d2Nal][dPhe(4-Cl)][d3Pal]S[Phe(4-NH(5-NH2triazol-3-yl))][X19]L[Lys(iPr)]P[dA]-NH2)",duration of biological effect,[1]; castrate male rats,very long-acting
same,suppression of the level of circulating LH in the bloodstream,"[1]; LH at about 3, 24, 36 and 48 hours, versus control and Nal-Glu antagonist","surprisingly effective to suppress the level of circulating LH in the bloodstream of male rats, at levels very substantially below that of the control and, after 12 hours, below that of the rats treated with the Nal-Glu antagonist"
same,Rats Ovulating,[2]; Dosage 0.5 micrograms,7/8
same,Rats Ovulating,[2]; Dosage 1.0 micrograms,0/7
same,Rats Ovulating,[2]; Dosage 2.5 micrograms,0/8
"CCCCNC(=NC#N)NCCCC[C@H](NC(=O)[C@H](CO)NC(=O)[C@@H](CCCCNC(=NC#N)NCCCC)NC(=O)[C@@H](Cc1ccc(Cl)cc1)NC(=O)[C@@H](Cc1ccc2ccccc2c1)NC(C)=O)C(=O)N[C@H](CCCCNC(=NC#N)NCCCC)C(=O)N[C@@H](CC(C)C)C(=O)N[C@@H](CCCCNC(C)C)C(=O)N1CCC[C@H]1C(=O)N[C@H](C)C(N)=O [Peptide 122] (Ac-[d2Nal][dPhe(4-Cl)][dLys(Nε-C(NCN)NHBu)]S[hArg(ω-Bu,ω'-CN)][dLys(Nε-C(NCN)NHBu)]L[Lys(iPr)]P[dA]-NH2)",Rats Ovulating,[2]; Dosage 10 micrograms,4/6
CCCCNC(=NC(N)=O)NCCCC[C@H](NC(=O)[C@H](CO)NC(=O)[C@@H](Cc1cccnc1)NC(=O)[C@@H](Cc1ccc(Cl)cc1)NC(=O)[C@@H](Cc1ccc2ccccc2c1)NC(C)=O)C(=O)N[C@H](Cc1ccc2ccccc2c1)C(=O)N[C@@H](CC(C)C)C(=O)N[C@@H](CCCNC(=N)N)C(=O)N1CCC[C@H]1C(=O)N[C@H](C)C(N)=O [Peptide 123] (Ac-[d2Nal][dPhe(4-Cl)][d3Pal]S[X8][d2Nal]LRP[dA]-NH2),Rats Ovulating,[2]; Dosage 5.0 micrograms,0/6
same,Rats Ovulating,[2]; Dosage 10 micrograms,1/10
"CC(=O)N[C@H](Cc1ccc2ccccc2c1)C(=O)N[C@H](Cc1ccc(Cl)cc1)C(=O)N[C@H](CCCNc1nc(N)n[nH]1)C(=O)N[C@@H](CO)C(=O)N[C@@H](Cc1ccc(O)cc1)C(=O)N[C@H](Cc1cccnc1)C(=O)N[C@@H](CC(C)C)C(=O)N[C@@H](CCCCNC(C)C)C(=O)N1CCC[C@H]1C(=O)N[C@H](C)C(N)=O [Peptide 125A] (Ac-[d2Nal][dPhe(4-Cl)][dOrn](Triazol3yl(1,2,4-5-NH2))SY[d3Pal]L[Lys(iPr)]P[dA]-NH2)",Rats Ovulating,[2]; Dosage 2.5 micrograms,1/7
same,Rats Ovulating,[2]; Dosage 5.0 micrograms,1/8
CC(=O)N[C@H](Cc1ccc2ccccc2c1)C(=O)N[C@H](Cc1ccc(Cl)cc1)C(=O)N[C@H](Cc1cccnc1)C(=O)N[C@@H](CO)C(=O)N[C@@H](Cc1ccc(Nc2nc(N)n[nH]2)cc1)C(=O)N[C@H](Cc1ccc(Nc2nc(N)n[nH]2)cc1)C(=O)N(C)[C@@H](CC(C)C)C(=O)N[C@@H](CCCCNC(C)C)C(=O)N1CCC[C@H]1C(=O)N[C@H](C)C(N)=O [Peptide 125C] (Ac-[d2Nal][dPhe(4-Cl)][d3Pal]S[Phe(4-NH(5-NH2triazol-3-yl))][X19][NMeL][Lys(iPr)]P[dA]-NH2),Rats Ovulating,[2]; Dosage 0.5 micrograms,6/10
same,Rats Ovulating,[2]; Dosage 1.0 micrograms,0/8
CCNC(=O)[C@@H]1CCCN1C(=O)[C@H](CCCCNC(C)C)NC(=O)[C@H](CC(C)C)NC(=O)[C@@H](Cc1ccc(Nc2nc(N)n[nH]2)cc1)NC(=O)[C@H](Cc1ccc(Nc2nc(N)n[nH]2)cc1)NC(=O)[C@H](CO)NC(=O)[C@@H](Cc1cccnc1)NC(=O)[C@@H](Cc1ccc(Cl)cc1)NC(=O)[C@@H](Cc1ccc2ccccc2c1)NC(C)=O [Peptide 125D] (Ac-[d2Nal][dPhe(4-Cl)][d3Pal]S[Phe(4-NH(5-NH2triazol-3-yl))][X19]L[Lys(iPr)]P-NHEt),Rats Ovulating,[2]; Dosage 1.0 micrograms,8/9
same,Rats Ovulating,[2]; Dosage 2.5 micrograms,0/8
same,biological potency in vivo relative to parent peptide,[2],just slightly less biological potency than that reported in TABLE B for Peptide 103B
CCNC(=O)[C@@H]1CCCN1C(=O)[C@H](CCCCNC(C)C)NC(=O)[C@H](CC(C)C)N(C)C(=O)[C@@H](Cc1ccc(Nc2nc(N)n[nH]2)cc1)NC(=O)[C@H](Cc1ccc(Nc2nc(N)n[nH]2)cc1)NC(=O)[C@H](CO)NC(=O)[C@@H](Cc1cccnc1)NC(=O)[C@@H](Cc1ccc(Cl)cc1)NC(=O)[C@@H](Cc1ccc2ccccc2c1)NC(C)=O [Peptide 125E] (Ac-[d2Nal][dPhe(4-Cl)][d3Pal]S[Phe(4-NH(5-NH2triazol-3-yl))][X19][NMeL][Lys(iPr)]P-NHEt),Rats Ovulating,[2]; Dosage 10 micrograms,0/5
CC(=O)N[C@H](Cc1ccc2ccccc2c1)C(=O)N[C@H](Cc1ccc(Cl)cc1)C(=O)N[C@H](Cc1cccnc1)C(=O)N[C@@H](CO)C(=O)N[C@@H](Cc1ccc(Nc2nc(N)n[nH]2)cc1)C(=O)N[C@H](Cc1ccc(Nc2nc(N)n[nH]2)cc1)C(=O)N[C@@H](CC(C)C)C(=O)N[C@@H](CCCCNC(C)C)C(=O)N1CCC[C@H]1C(=O)NCC(N)=O [Peptide 125F] (Ac-[d2Nal][dPhe(4-Cl)][d3Pal]S[Phe(4-NH(5-NH2triazol-3-yl))][X19]L[Lys(iPr)]PG-NH2),Rats Ovulating,[2]; Dosage 1.0 micrograms,9/16
same,biological potency in vivo relative to parent peptide,[2],slightly less biologically potent than Peptide 103A
CC(=O)N[C@H](Cc1ccc2ccccc2c1)C(=O)N[C@H](Cc1ccc(Cl)cc1)C(=O)N[C@H](CCCNC(=NC#N)NCc1ccccn1)C(=O)N[C@@H](CO)C(=O)N[C@@H](Cc1ccc(O)cc1)C(=O)N[C@H](Cc1ccc2ccccc2c1)C(=O)N[C@@H](CC(C)C)C(=O)N[C@@H](CCCCNC(C)C)C(=O)N1CCC[C@H]1C(=O)N[C@H](C)C(N)=O [Peptide 125] (Ac-[d2Nal][dPhe(4-Cl)][X28]SY[d2Nal]L[Lys(iPr)]P[dA]-NH2),Rats Ovulating,[2]; Dosage 2.5 micrograms,3/7
CC(=O)N[C@H](Cc1ccc2ccccc2c1)C(=O)N[C@H](Cc1ccc(Cl)cc1)C(=O)N[C@H](Cc1cccnc1)C(=O)N[C@@H](CO)C(=O)N[C@H]1CCCCNC(=NC#N)NCCCC[C@@H](C(=O)N2CCC[C@H]2C(=O)N[C@H](C)C(N)=O)NC(=O)[C@H](CC(C)C)N(C)C(=O)[C@@H](Cc2cccnc2)NC1=O [Peptide 145],effectiveness to prevent ovulation of female mammals,[2],effective to prevent ovulation of female mammals at low dosages
CC(=O)N[C@H](Cc1ccc2ccccc2c1)C(=O)N[C@H](Cc1ccc(Cl)cc1)C(=O)N[C@H](Cc1cccnc1)C(=O)N[C@@H](CO)C(=O)N[C@H]1CCCNC(=NC#N)NCCCC[C@@H](C(=O)N2CCC[C@H]2C(=O)N[C@H](C)C(N)=O)NC(=O)[C@H](CC(C)C)NC(=O)[C@@H](Cc2c[nH]c3ccccc23)NC1=O [Peptide 146],effectiveness to prevent ovulation of female mammals,[2],effective to prevent ovulation of female mammals at low dosages
CC(=O)N[C@H](Cc1ccc2ccccc2c1)C(=O)N[C@H](Cc1ccc(Cl)cc1)C(=O)N[C@H](Cc1cccnc1)C(=O)N[C@@H](CO)C(=O)N[C@@H](Cc1ccc(O)cc1)C(=O)N[C@H](CCCCN1CCOCCNC1=NC#N)C(=O)N[C@@H](CC(C)C)C(=O)N[C@@H](CCCCNC(C)C)C(=O)N1CCC[C@H]1C(=O)N[C@H](C)C(N)=O [Peptide 149] (Ac-[d2Nal][dPhe(4-Cl)][d3Pal]SY[X23]L[Lys(iPr)]P[dA]-NH2),effectiveness to prevent ovulation of female mammals,[2],effective to prevent ovulation of female mammals at low dosages
